Screen size: about 310,000 compounds; about 14,000 (4.5%) showed an effect of 50% or more. The effect is printed as a negative number. Some of the results follow.
target: human ether-à-go-go-related gene (hERG) potassium channel (human, UniProt Q12809); test: primary screen, population patch clamp on CHO cells stably expressing hERG
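Note: peak tail current of the secondary pulse compared with the same well before compound.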

Sequence of human ether-à-go-go-related gene (hERG) potassium channel (Q12809 whole entry, looked up): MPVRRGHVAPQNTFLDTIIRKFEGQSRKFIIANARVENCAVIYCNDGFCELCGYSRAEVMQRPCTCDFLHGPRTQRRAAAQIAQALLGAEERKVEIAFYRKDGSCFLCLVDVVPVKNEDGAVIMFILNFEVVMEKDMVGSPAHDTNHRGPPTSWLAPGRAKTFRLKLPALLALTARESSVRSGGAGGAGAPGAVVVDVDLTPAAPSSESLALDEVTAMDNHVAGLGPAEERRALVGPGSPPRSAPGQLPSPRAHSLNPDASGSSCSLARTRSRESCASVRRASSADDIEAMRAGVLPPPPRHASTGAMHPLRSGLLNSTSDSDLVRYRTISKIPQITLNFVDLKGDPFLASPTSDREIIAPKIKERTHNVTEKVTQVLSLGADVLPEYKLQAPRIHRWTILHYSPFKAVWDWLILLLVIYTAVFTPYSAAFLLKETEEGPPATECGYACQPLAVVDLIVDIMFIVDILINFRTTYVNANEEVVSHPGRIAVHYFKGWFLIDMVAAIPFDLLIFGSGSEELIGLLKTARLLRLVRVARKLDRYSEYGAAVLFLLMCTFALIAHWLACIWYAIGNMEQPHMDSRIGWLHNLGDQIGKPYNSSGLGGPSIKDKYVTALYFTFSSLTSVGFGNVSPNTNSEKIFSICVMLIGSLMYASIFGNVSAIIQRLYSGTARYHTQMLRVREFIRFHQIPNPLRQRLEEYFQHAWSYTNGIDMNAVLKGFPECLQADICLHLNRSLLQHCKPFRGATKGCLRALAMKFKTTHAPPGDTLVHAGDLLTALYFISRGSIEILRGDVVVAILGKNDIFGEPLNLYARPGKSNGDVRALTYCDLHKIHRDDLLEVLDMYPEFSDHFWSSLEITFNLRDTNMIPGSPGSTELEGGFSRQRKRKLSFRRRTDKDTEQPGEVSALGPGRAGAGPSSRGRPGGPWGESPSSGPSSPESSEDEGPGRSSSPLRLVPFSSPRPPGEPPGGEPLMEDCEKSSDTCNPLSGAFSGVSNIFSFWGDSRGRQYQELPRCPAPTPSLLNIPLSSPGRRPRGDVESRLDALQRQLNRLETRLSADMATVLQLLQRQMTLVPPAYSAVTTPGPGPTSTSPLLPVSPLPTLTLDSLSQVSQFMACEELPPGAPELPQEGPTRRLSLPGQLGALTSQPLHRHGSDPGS

| SMILES | hERG current change (%, negative = inhibition) at 10uM [%] |
| --- | --- |
| O=C(C1=C[C@H](C2CCCCC2)C[C@H](OCCCCO)O1)N1CCN(Cc2ccc3c(c2)OCO3)CC1 | -56.5 |
| CC(=O)NC1C(c2nc3ccccc3s2)=C(c2ccccc2)C(=O)N1c1ccc(C)cc1 (centres unmarked) | 11.7 |
| O=[N+]([O-])c1ccc(-c2c(O)c3ccccc3c3nc4ccccc4nc23)cc1 | 18 |
| O=C(COC(=O)c1ccccc1O)Nc1cc([N+](=O)[O-])ccc1Cl | -21.5 |
| COc1ccc(CSc2ccc(-c3nc4ccccn4c3NCc3ccccc3)cc2OC)cc1.O=C(O)C(F)(F)F | 8.68 |
| CC(C)C[C@H](NC(=O)c1nc[nH]c1C(=O)N[C@@H](CC(C)C)C(=O)OC(C)(C)C)C(=O)OC(C)(C)C | 21.9 |
| COC(=O)c1ccc(NC(=O)CSc2n[nH]c(-c3ccncc3)n2)cc1 | -11.4 |
| C=C1c2cccc(O)c2C(O)=C2C(=O)[C@]3(O)C(O)=C(C(N)=O)C(=O)[C@@H](N(C)C)[C@@H]3[C@@H](O)[C@H]12.Cl | 17.9 |
| CCSC1=NCCN1C(=O)c1ccc(S(=O)(=O)N(C)C)cc1 | 10.5 |
| Cc1onc(-c2ccccc2Cl)c1NC(=O)NCc1cccs1 | 6.48 |
| COc1ccc(-c2nc(CN3CCN(Cc4cccc(Cl)c4)CC3)c(C)o2)cc1 | -33.1 |
| O=C(c1ccco1)N(Cc1ccc(Cl)cc1)C1CCS(=O)(=O)C1 (centres unmarked) | -11.6 |
| COC(=O)c1ccc(C(=O)OC)c(NC(=O)CCC(=O)O)c1 | 0.41 |
| Cc1ccc(NC(=O)Cn2nnc(-c3ccccc3NC(=O)c3cccs3)n2)cc1 | 21.7 |
| CCNC(=O)CSc1nnc(C2CC2)n1-c1ccccc1 | 11.8 |
| Cc1cc(C(=O)CC#N)c(C)n1-c1c(C)n(C)n(-c2ccccc2)c1=O | 15.4 |
| Cc1ccccc1N(Cc1ccccc1F)S(C)(=O)=O | -8.54 |
| Clc1ccc2nc(N3CCCCC3)sc2c1 | 8.89 |
| CC(Oc1ccccc1)C(=O)NC1CCN(Cc2ccccc2)CC1 (centres unmarked) | -26.8 |
| COC(=O)c1c(NC(=O)CN2CCN(C(=O)c3ccco3)CC2)c2cc(C)ccc2n1C | -31.9 |
| COC(=O)Cc1cc(OC)c(OC)cc1S(=O)(=O)N(C)C | 38.5 |
| S=C1NC2(CCCCC2)N=C1c1ccccc1 | 10.2 |

| SMILES | hERG current change (%, negative = inhibition) at 10uM [%] |
| --- | --- |
| Cc1ccc(NC(=S)Nc2cccnc2)c(S(=O)(=O)N2CCCCC2)c1 | -3.48 |
| Cc1cccc(C)c1OCc1cc(C(=O)N2CCC(c3ccccc3)CC2)no1 | -1.95 |
| CN(C1CCCCC1)S(=O)(=O)c1ccc(=S)[nH]c1 | 17.4 |
| CCCCCCSC1=C(C#N)C(c2ccccc2)CC(=O)N1 (centres unmarked) | -2.01 |
| O=C(NCc1cc(C(F)(F)F)cc(C(F)(F)F)c1)C1CC(c2ccccc2[N+](=O)[O-])=NO1 (centres unmarked) | -18.6 |
| CCOCCCNC(=O)C1CCCN(S(=O)(=O)c2ccc(-n3cnnn3)cc2)C1 (centres unmarked) | -32.6 |
| CCN(CC)S(=O)(=O)c1cc(Br)ccc1OC | -0.441 |
| CCOC(=O)c1cnc(SCC(=O)N2CCN(c3ccccc3)CC2)nc1N | -28.8 |
| COc1ccccc1NC(=O)CSc1n[nH]c(-c2cccnc2)n1 | 7.07 |
| O=C(CNC(=O)c1ccc(Br)o1)OCc1ccc(Br)cc1 | -8.22 |
| CCOc1ccc(N(CC(=O)NCc2ccc(OC)cc2)C(=O)CCC(=O)Nc2nccs2)cc1 | 8.55 |
| COc1ccccc1N1CCN(CCN2C(=O)CC3(CCCC3)CC2=O)CC1.Cl | -16.9 |
| CC(C)(C)c1ccc(NC(=O)Nc2ccc(F)cc2)cc1 | 19 |
| Cc1ccc(NC(=O)CCl)cc1S(=O)(=O)N1CCCCCC1 | -49.7 |
| Cc1ccc(N2CCN(/N=C/c3cccnc3)CC2)cc1 | -7.29 |
| CCc1nn(C(C)C(=O)N2CCc3ccccc3C2)c(=O)c2cc3occc3n12 (centres unmarked) | -23.1 |
| COc1ccc(CCNCC(O)COc2ccc(Cl)cc2)cc1OC.Cl (centres unmarked) | -72.1 |
| CCC(C)[C@H](N)C(=O)NCC1CCC(C(=O)N[C@@H](Cc2ccccc2)C(=O)O)CC1.Cl (some centres unmarked) | 18.3 |
| S=C(c1ccc(OCc2ccccc2)cc1)N1CCCC1 | 11.9 |
| NS(=O)(=O)c1ccc(CNC(=O)CSc2ccccc2)cc1 | 14.5 |
| Cc1cc(Br)ccc1SCC(=O)OCC(=O)Nc1ncc(C(F)(F)F)cc1Cl | 13.7 |
| COc1ccc(CSc2cccc3cccnc23)cc1[N+](=O)[O-] | 1.59 |

| SMILES | hERG current change (%, negative = inhibition) at 10uM [%] |
| --- | --- |
| CC(C)(C)NC(=O)CCCCCCCC(=O)NC(C)(C)C | 39.1 |
| Nn1c(SCC(=O)NCc2ccc3c(c2)OCO3)nnc1C1CC1 | 10.2 |
| Cc1ccc(Cl)cc1N1CCN(C(=O)C2CCN(c3nnc(-n4cccc4)s3)CC2)CC1 | -16.4 |
| CC(C)(C)c1ccc(C(=O)NCC(=O)OCN2C(=O)c3ccccc3C2=O)cc1 | -8.89 |
| CC(CCc1ccccc1)NC(=O)COC(=O)c1ccccc1Br (centres unmarked) | -1.76 |
| O=C1c2ccccc2C(=O)N1CCC#Cc1ccc2cc(C3(O)CCCCC3)oc(=O)c2c1 | -4.6 |
| Cc1ccc(C(=O)Nc2cccc(N3C(=O)C4CCC(C)CC4C3=O)c2)cc1 (centres unmarked) | -2.53 |
| COC(=O)[C@@H]1C[C@@]2(O)[C@H](O)[C@H](O)[C@H](O)C[C@H]2N1Cc1ccccc1OS(=O)(=O)c1ccc(C)cc1 | -5.21 |
| Cc1ccc(-c2csc(NC(=O)c3c(C)noc3C)n2)cc1 | -31.7 |
| CCOc1ccccc1NC(=O)CCC(=O)O | -13.9 |
| O=C1OC(c2ccc(Br)cc2)=N/C1=C\N1CCCCC1 | 22 |
| COc1ccccc1CNc1cc(-c2ccccc2)ccc1OC | 5.86 |
| Cc1cccc(OCCNC(=O)CCNS(=O)(=O)c2ccc3ccccc3c2)c1 | -14.8 |
| Cc1ccc(-c2cc(C(F)F)n3ncc(C(=O)NCc4ccco4)c3n2)cc1 | -0.82 |
| CCN1C(=O)CC(NNC(=O)c2ccccc2)C1=O (centres unmarked) | -20.1 |
| CCCn1c(N)c(N(CCOC)C(=O)c2cc(S(=O)(=O)N3CCCCCC3)ccc2OC)c(=O)[nH]c1=O | -8.95 |
| O=C(NCCc1ccccc1)C1CCCN1C(=O)Nc1ccc(F)cc1 (centres unmarked) | 0.314 |
| Cc1ccc(C(=O)COC(=O)c2cccc(N3C(=O)c4c(C)nc5ccccc5c4C3=O)c2)cc1C | -3.35 |
| O=C1c2ccccc2C(=O)N1CCc1nn[nH]n1 | 17 |
| O=C(Nc1ccon1)c1csc2ccccc12 | 4.41 |
| COc1ccc(CCCc2n[nH]c(=S)o2)cc1 | 13.7 |
| CC(OC(=O)C1=Cc2ccccc2OC1)C(=O)NCc1ccco1 (centres unmarked) | -26.3 |

| SMILES | hERG current change (%, negative = inhibition) at 10uM [%] |
| --- | --- |
| CCc1nc(C)cn1S(=O)(=O)c1ccc([N+](=O)[O-])cc1 | 1.04 |
| Cc1ccc(N(C(=O)Cn2nnc3ccccc32)C(C(=O)NCc2ccccc2)c2ccccn2)cc1 (centres unmarked) | -45.5 |
| CC1CCCN(C(=O)COC(=O)c2ccc(=O)n(Cc3ccccc3)n2)C1 (centres unmarked) | -2.06 |
| CCN(CCn1cccn1)C(=O)CCc1nnc(Cc2c[nH]c3ccccc23)o1 | 0.476 |
| CCCn1c(/N=C/c2ccccc2O)nc2ccccc21 | 13.6 |
| Cn1c(=O)c2c(nc(SCCN3CCOCC3)n2Cc2ccc(F)cc2)n(C)c1=O | -56 |
| Cc1cc(C)nc(NC(=O)CSc2nnnn2-c2ccccc2)n1 | -12.3 |
| CSCCC(N=CC1=C(O)CC(C)(C)CC1=O)C(=O)O (centres unmarked) | 5.97 |
| COC(=O)C1CSC(C)(C)C(=O)N1 (centres unmarked) | 4.6 |
| CCOC(=O)N1CCC(Nc2c(NCCCN(CC)c3cccc(C)c3)c(=O)c2=O)CC1 | -22 |
| O=S(=O)(NCCc1cccs1)c1ccc(Br)cc1 | -15.7 |
| CCOc1ccc(-c2nnn(CC(=O)NCc3ccco3)n2)cc1OCC | -3.89 |
| COC(=O)c1cc(=O)n(CCc2ccccc2F)c(=Nc2ccc(F)c(Cl)c2)s1 | 14.1 |
| C[N+]1(CCN2C(=O)C3CC=C(Cl)CC3C2=O)CCOCC1.[Br-] (centres unmarked) | 4.11 |
| CN(C(=O)c1ccco1)c1nc(-c2ccccc2)cs1 | 7.97 |
| COc1ccc(NC(=O)c2ccc(Cl)c(S(=O)(=O)N3CCc4ccccc4C3)c2)cn1 | -46.8 |
| O=C(Nc1nc2ccsc2c(=O)s1)C1CCC1 | 7.03 |
| Cc1ccccc1-n1c(SCC(=O)N/N=C/C=C/c2ccccc2[N+](=O)[O-])nc2ccccc2c1=O | 17.5 |
| CCCN1C(=O)C(Cc2nc3ccccc3c(=O)n2C)c2ccccc21 (centres unmarked) | -12.8 |
| Cc1ccc(NS(=O)(=O)c2cc(N)ccc2Cl)c(C)c1 | 6.64 |
